Data as given in the supplement of paper PMC8728848.
The list shows a part of the results.

Tests used:
Test in all cases: glycan array binding signal (z-score within array); higher = stronger binding
Details in all cases: glycan notation: IUPAC condensed, linker removed; mutation: E41G
[1] = target: Neu5Ac(a2-6)GlcNAc(b1-4)GlcNAc(b1-4)GlcNAc
In short: (§1)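 The binding signal is a Z-score computed within each array and averaged over linkers. Arrays of the same protein sequence at different concentrations or buffers were also averaged together. Data originate from 3228 arrays in the Consortium for Functional Glycomics database, kept only where the protein sequence was available.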

Neu5Ac(a2-8)Neu5Ac = target: Neu5Ac(a2-8)Neu5Ac
In short: as §1

[2] = target: Neu5Ac(a2-8)Neu5Ac(a2-3)Gal(b1-3)GalNAc(b1-4)[Neu5Ac(a2-3)]Gal(b1-4)Glc
In short: as §1

[3] = target: Neu5Ac(a2-8)Neu5Ac(a2-3)Gal(b1-3)GalNAc(b1-4)[Neu5Ac(a2-8)Neu5Ac(a2-3)]Gal(b1-4)Glc
In short: as §1

[4] = target: Neu5Ac(a2-8)Neu5Ac(a2-3)Gal(b1-4)Glc
In short: as §1

[5] = target: Neu5Ac(a2-8)Neu5Ac(a2-3)Gal(b1-4)GlcNAc
In short: as §1

[6] = target: Neu5Ac(a2-8)Neu5Ac(a2-3)[Gal(b1-3)GalNAc(b1-4)]Gal(b1-4)Glc
In short: as §1

[7] = target: Neu5Ac(a2-8)Neu5Ac(a2-3)[GalNAc(b1-4)]Gal(b1-4)Glc
In short: as §1

[8] = target: Neu5Ac(a2-8)Neu5Ac(a2-8)Neu5Ac
In short: as §1

[9] = target: Neu5Ac(a2-8)Neu5Ac(a2-8)Neu5Ac(a2-3)Gal(b1-4)Glc
In short: as §1

[10] = target: Neu5Ac(a2-8)Neu5Ac(a2-8)Neu5Ac(a2-3)[Gal(b1-3)GalNAc(b1-4)]Gal(b1-4)Glc
In short: as §1

[11] = target: Neu5Ac(a2-8)Neu5Ac(a2-8)Neu5Ac(a2-3)[GalNAc(b1-4)]Gal(b1-4)Glc
In short: as §1

[12] = target: Neu5Ac(a2-8)Neu5Ac(a2-8)Neu5Ac(a2-8)Neu5Ac(a2-3)[GalNAc(b1-4)]Gal(b1-4)Glc
In short: as §1

[13] = target: Neu5Ac(a2-8)Neu5Gc(a2-3)Gal(b1-4)GlcNAc
In short: as §1

[14] = target: Neu5Ac(b2-6)Gal(b1-4)GlcNAc
In short: as §1

Neu5Ac(b2-6)GalNAc = target: Neu5Ac(b2-6)GalNAc
In short: as §1

[15] = target: Neu5Ac9Ac(a2-3)Gal(b1-3)GlcNAc
In short: as §1

[16] = target: Neu5Ac9Ac(a2-3)Gal(b1-4)GlcNAc
In short: as §1

[17] = target: Neu5Ac9Ac(a2-6)Gal(b1-4)GlcNAc
In short: as §1

[18] = target: Neu5Gc(a2-3)Gal(b1-3)GlcNAc
In short: as §1

[19] = target: Neu5Gc(a2-3)Gal(b1-3)[Fuc(a1-4)]GlcNAc
In short: as §1

Neu5Gc(a2-3)Gal(b1-4)Glc = target: Neu5Gc(a2-3)Gal(b1-4)Glc
In short: as §1

[20] = target: Neu5Gc(a2-3)Gal(b1-4)GlcNAc
In short: as §1

[21] = target: Neu5Gc(a2-3)Gal(b1-4)GlcNAc(b1-3)Gal(b1-4)GlcNAc(b1-2)Man(a1-3)[Neu5Gc(a2-3)Gal(b1-4)GlcNAc(b1-3)Gal(b1-4)GlcNAc(b1-2)Man(a1-6)]Man(b1-4)GlcNAc(b1-4)GlcNAc
In short: as §1

[22] = target: Neu5Gc(a2-3)Gal(b1-4)[Fuc(a1-3)]GlcNAc
In short: as §1

[23] = target: Neu5Gc(a2-6)Gal(b1-4)GlcNAc
In short: as §1

Neu5Gc(a2-6)GalNAc = target: Neu5Gc(a2-6)GalNAc
In short: as §1

[24] = target: Neu5Gc(a2-8)Neu5Ac(a2-3)Gal(b1-4)GlcNAc
In short: as §1

[25] = target: Neu5Gc(a2-8)Neu5Gc(a2-3)Gal(b1-4)GlcNAc
In short: as §1

[26] = target: Neu5Gc(a2-8)Neu5Gc(a2-3)Gal(b1-4)GlcNAc(b1-3)Gal(b1-4)GlcNAc
In short: as §1

[27] = target: Neu5Gc(a2-8)Neu5Gc(a2-6)Gal(b1-4)GlcNAc
In short: as §1

[28] = target: Neu5Gc(b2-6)Gal(b1-4)GlcNAc
In short: as §1

B1: CVN-E41G (protein)
chain: MHHHHHHENLYFQSGNFSQACYNSAIQGSVLTSTCIRTNGGYNTSSIDLNSVIGNVDGSLKWQGSNFIETCRNTQLAGSSELAAECKTRAQQFVSTKINLDDHIAAIDGTLKYE
glycan array binding signal (z-score) [1]: -0.115 | glycan array binding signal (z-score) (Neu5Ac(a2-8)Neu5Ac): -0.132 | glycan array binding signal (z-score) [2]: -0.157 | glycan array binding signal (z-score) [3]: -0.158 | glycan array binding signal (z-score) [4]: -0.181 | glycan array binding signal (z-score) [5]: -0.181 | glycan array binding signal (z-score) [6]: -0.153 | glycan array binding signal (z-score) [7]: -0.161 | glycan array binding signal (z-score) [8]: -0.158 | glycan array binding signal (z-score) [9]: -0.173 | glycan array binding signal (z-score) [10]: -0.003 | glycan array binding signal (z-score) [11]: -0.138 | glycan array binding signal (z-score) [12]: -0.152 | glycan array binding signal (z-score) [13]: -0.171 | glycan array binding signal (z-score) [14]: -0.174 | glycan array binding signal (z-score) (Neu5Ac(b2-6)GalNAc): -0.196 | glycan array binding signal (z-score) [15]: -0.182 | glycan array binding signal (z-score) [16]: -0.175 | glycan array binding signal (z-score) [17]: -0.152 | glycan array binding signal (z-score) [18]: -0.176 | glycan array binding signal (z-score) [19]: -0.145 | glycan array binding signal (z-score) (Neu5Gc(a2-3)Gal(b1-4)Glc): -0.133 | glycan array binding signal (z-score) [20]: -0.171 | glycan array binding signal (z-score) [21]: -0.176 | glycan array binding signal (z-score) [22]: -0.169 | glycan array binding signal (z-score) [23]: -0.172 | glycan array binding signal (z-score) (Neu5Gc(a2-6)GalNAc): -0.133 | glycan array binding signal (z-score) [24]: -0.159 | glycan array binding signal (z-score) [25]: -0.178 | glycan array binding signal (z-score) [26]: -0.179 | glycan array binding signal (z-score) [27]: -0.166 | glycan array binding signal (z-score) [28]: -0.155
